Laboratory results published in the supplement of paper PMC3334620.
In all, about 33,000 sequences were measured (“E-score (-0.5 to 0.5)”: median about -0.041, highest 2% from about 0.37 on). Some of the results follow.

target: T1, Ecm22 (UniProt Q05958); assay: PBM E-score (8-mer binding enrichment) (E-score (-0.5 to 0.5)); higher = stronger / more preferred TF binding; most listed sequences are background and not binding sites; conditions: protein concentration: 200 nM; construct: GST-full length
T1 sequence: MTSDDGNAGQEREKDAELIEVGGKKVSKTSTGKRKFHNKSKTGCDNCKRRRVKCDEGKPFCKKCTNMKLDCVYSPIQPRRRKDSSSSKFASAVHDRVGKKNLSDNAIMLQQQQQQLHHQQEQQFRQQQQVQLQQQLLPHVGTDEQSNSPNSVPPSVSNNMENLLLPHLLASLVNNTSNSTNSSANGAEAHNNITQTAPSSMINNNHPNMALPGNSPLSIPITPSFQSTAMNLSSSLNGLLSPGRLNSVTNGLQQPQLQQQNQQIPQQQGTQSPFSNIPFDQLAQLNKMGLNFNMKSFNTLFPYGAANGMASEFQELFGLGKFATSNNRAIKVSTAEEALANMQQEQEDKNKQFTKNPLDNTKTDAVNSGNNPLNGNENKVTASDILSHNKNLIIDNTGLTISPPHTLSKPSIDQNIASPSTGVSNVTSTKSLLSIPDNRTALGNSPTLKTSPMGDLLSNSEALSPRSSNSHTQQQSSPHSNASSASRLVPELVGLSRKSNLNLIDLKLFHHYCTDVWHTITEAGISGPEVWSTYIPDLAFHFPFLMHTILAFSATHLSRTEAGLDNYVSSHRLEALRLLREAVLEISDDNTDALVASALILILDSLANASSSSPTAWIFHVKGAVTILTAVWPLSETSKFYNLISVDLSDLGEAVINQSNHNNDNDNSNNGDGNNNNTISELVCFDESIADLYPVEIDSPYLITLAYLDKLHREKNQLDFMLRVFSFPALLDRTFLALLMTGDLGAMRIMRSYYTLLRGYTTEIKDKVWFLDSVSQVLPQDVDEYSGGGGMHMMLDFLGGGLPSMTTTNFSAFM
In short: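 Using PURExpress in vitro transcription/translation, GST-tagged yeast transcription factors were made in full-length or DNA-binding-domain form. These were applied at about 100-200 nM to double-stranded universal all-10-mer Agilent arrays, and bound protein was detected with fluorescent anti-GST. Scans were normalised with masliner before the Universal PBM Analysis Suite assigned E-scores to ungapped eight-base words pooled with their reverse complements.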

Sequence	PBM E-score
GCTAGGTA	-0.0337
GTGATCTA	0.105
CATACGTA	0.288
ACCACATA	-0.00349
ACGCATCG	0.214
CTCTTTAA	-0.137
ATAACTCA	-0.0407
GAACGTAC	0.28
GGGCATAA	-0.0832
ACTCTTGA	-0.111
TCAATTAA	-0.0509
GAACTCTA	0.0489
CGTTGGGC	-0.225
GGAGCGAC	0.339
AGGCTGAT	-0.145
CCAAAAAA	-0.208
GCTCCCCC	-0.255
ACCCTTCC	-0.204
CAGATTCA	-0.281
GTGGTAAA	-0.0723
GATTCTGC	0.0157
ATCAAACG	0.329
GCGATCGA	0.2
ACTTCGGC	-0.0475
ATTGAAAA	-0.0292

Sequence	PBM E-score
GCTAATTA	0.0782
ATCCCGAT	-0.0346
ATTACTGC	0.0771
GTAGAGAA	0.164
AGCTCCCA	-0.0499
ACCGTGCA	0.105
CCAACTAA	-0.0761
CCAGAATA	0.0266
AAAAACTC	-0.0804
AACATCTA	-0.163
CCACTTCA	-0.179
CACGGTCC	-0.135
CGGAAGAC	-0.0175
CTTTAGCA	-0.272
GCCTTAAA	0.018
AAGTTGGA	-0.144
ACATGTGG	-0.117
CGGTTTAA	0.217
CGTTAGGA	0.0298
ACGCCCAT	0.0165
CATCAGAC	-0.11
CACTATTA	0.105
CGATATTA	0.214
ACCCATGG	-0.231
GCAGAAAA	0.129

Sequence	PBM E-score
CCATGAGG	-0.13
CTTTCATC	-0.209
TCATACGA	0.463
CGCGGCCC	0.0405
GAGCTGAC	-0.0324
GACGGAAC	0.0799
TTATCCAA	-0.0862
AGGTCTGA	-0.113
AGCAGTGG	-0.127
CTGCGACC	-0.169
AACGCCGA	0.149
ATAGCGGA	-0.0269
GGACAATA	-0.188
CTAGCTTA	-0.244
AGCGGAAC	0.234
CCTTGCCG	-0.0884
ACTCGAGG	-0.0795
AGAAAAAT	0.00769
GACAGCGC	0.0726
AGAACAAG	0.0882
AATGATCC	0.00369
AAGAGGCA	0.0751
GTTGTATA	0.0728
AAGTAGCT	-0.0254
AGTTAGAG	-0.143

Sequence	PBM E-score
CTGTTTCC	-0.139
CACGTGCC	-0.181
CCAAGCAA	-0.172
AGAATTGA	0.0376
GTTAGTGA	-0.0322
AAAGTCGG	0.0415
ACGTGTGC	-0.0736
CCTGTAAC	-0.0164
GCCATAGC	-0.226
AAATCATC	-0.0425
AGACTCTG	-0.142
AAAAATGT	0.0606
CCCAACAC	-0.161
ACTATAAT	0.00733
CACTATGA	-0.211
AGGAAATC	0.152
ACGTTGCG	0.167
CCACAAAA	-0.0154
CTATCTTA	-0.197
GCTAAATA	-0.102
CCGGGTGC	-0.232
CAAATGTA	0.0682
CTCAACAG	-0.193
AGGTTACT	-0.192
CAGCGGAA	-0.123

Sequence	PBM E-score
CAATATCA	-0.028
GTCAGAAC	-0.0461
CCGACCCG	0.185
GACGATTA	0.0551
GGAGTTAC	0.00868
AATCACAC	0.00776
GAAGACGC	-0.0486
CACCCCGG	-0.236
TAGGCGCA	-0.123
CCATGGCA	-0.0795
ACCCGGGA	0.044
GCGGAGTA	-0.0238
CACAATCG	0.104
CCGCTAAC	-0.00124
GAAACAGC	-0.106
AATGGGCC	-0.116
ATCACAGC	-0.06
CCCTGATC	0.102
CCCATCAC	-0.261
CGAGAAGC	0.198
ACCGGTCG	0.216
CTGTCATA	-0.0845
CCTGCTAC	-0.099
ACAGAACA	0.0426
ACTCCGCA	-0.126

Sequence	PBM E-score
TCTGGACA	-0.0105
ACTGTCTC	0.0547
ACTTAAGT	-0.16
ATTGTGCG	0.113
ACAGAGCG	0.00751
AGCTTCGA	-0.115
AGGATTCG	0.0336
CATGAGTA	0.0502
CCCGTCTA	-0.106
GAGGGGAC	-0.121
CATTACCG	-0.025
CGATTAAC	0.217
ACACATCA	-0.0417
ACAGACCG	0.0348
AATCATGT	0.0212
GGTCCTCA	-0.088
AATGGCAG	-0.174
ACATAACA	-0.0522
AGGTGACA	-0.0992
ATATTTGA	0.0827
ATGCCTTA	-0.104
AGTCACCA	-0.189
GAGTTTGC	-0.0545
CACTTAAG	-0.0616
CTAAGCTC	-0.2

Sequence	PBM E-score
ATGGTGCG	0.12
ACGGCCCT	0.107
GCCCATGA	-0.0452
GCACGCCC	-0.0551
GCCCCGAA	-0.0866
CTATGATA	0.163
CAGCTCTA	-0.19
AAAAATCG	0.0349
AAGCTCCT	-0.294
AAACGGGA	0.332
AAGTTCCG	0.0506
GTGCAGGA	-0.214
TACTGAGA	-0.229
ACTTCTTA	-0.112
CAGCGCGA	-0.0491
AGCGATCA	0.0802
GGAGTAAC	-0.0734
GGTCTCTA	-0.153
AGCATAGC	-0.245
CGCTACCG	0.147
AAAGCAGG	-0.203
GGTTGGTA	0.163
GCATCCCA	-0.233
CATGGGGG	-0.375
TGCCGGCA	-0.275

Sequence	PBM E-score
CGCTTATC	0.127
ACAACCTC	-0.00434
ACCCGTAG	-0.142
CAGGGGCG	-0.185
ATCGCAAG	-0.113
CATTGCGG	-0.0533
CTGTGTGA	-0.0561
AACGACCT	0.385
TTCATGAA	-0.134
GCGTGTGA	-0.0669
ATTGCCGA	0.117
CTATATAG	0.0949
AGCCTGCA	-0.174
CCAATTTA	0.155
AGAATGGA	0.0528
CTTCCCCA	-0.271
CTAAAGTA	-0.0757
GGTGTACA	-0.0578
CCAGTAAC	-0.154
AACGCCTC	-0.198
TAAGCGTA	0.104
CGCGGTTC	0.306
AGGAGGCG	-0.229
GAGGCACA	-0.16
CCTCTTCC	-0.161

Sequence	PBM E-score
ACTTGTAC	0.183
GACGAACC	0.0132
ATGGTAGC	0.0235
AGGGGCTC	-0.156
GCCCAGTA	-0.284
TACCCTCA	-0.164
GTTACAAA	0.0318
AAGGTACC	-0.0364
CCAGCGCA	-0.234
AAAATCTT	-0.151
AGAGGGAG	-0.0784
ACAGTGAG	-0.197
ACCGGCAC	0.00786
CTTAGACC	-0.191
GCTCACTA	-0.166
CCTTCCAC	-0.152
AATTACCT	0.105
CTTAGCTC	-0.0151
GGGCATTA	-0.134
